According to article PMC4336329 (PLoS ONE, 2015):
Out of some 310,000 compounds screened, about 14,000 (4.5%) showed an effect of 50% or more. The effect is printed as a negative number. Some of the results follow.

molecular target: human ether-à-go-go-related gene (hERG) potassium channel (human, UniProt Q12809); experiment: primary screen, population patch clamp on CHO cells stably expressing hERG
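Also: peak tail current of the secondary pulse compared with the same well before compound.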

Chain of human ether-à-go-go-related gene (hERG) potassium channel (Q12809 whole entry, looked up): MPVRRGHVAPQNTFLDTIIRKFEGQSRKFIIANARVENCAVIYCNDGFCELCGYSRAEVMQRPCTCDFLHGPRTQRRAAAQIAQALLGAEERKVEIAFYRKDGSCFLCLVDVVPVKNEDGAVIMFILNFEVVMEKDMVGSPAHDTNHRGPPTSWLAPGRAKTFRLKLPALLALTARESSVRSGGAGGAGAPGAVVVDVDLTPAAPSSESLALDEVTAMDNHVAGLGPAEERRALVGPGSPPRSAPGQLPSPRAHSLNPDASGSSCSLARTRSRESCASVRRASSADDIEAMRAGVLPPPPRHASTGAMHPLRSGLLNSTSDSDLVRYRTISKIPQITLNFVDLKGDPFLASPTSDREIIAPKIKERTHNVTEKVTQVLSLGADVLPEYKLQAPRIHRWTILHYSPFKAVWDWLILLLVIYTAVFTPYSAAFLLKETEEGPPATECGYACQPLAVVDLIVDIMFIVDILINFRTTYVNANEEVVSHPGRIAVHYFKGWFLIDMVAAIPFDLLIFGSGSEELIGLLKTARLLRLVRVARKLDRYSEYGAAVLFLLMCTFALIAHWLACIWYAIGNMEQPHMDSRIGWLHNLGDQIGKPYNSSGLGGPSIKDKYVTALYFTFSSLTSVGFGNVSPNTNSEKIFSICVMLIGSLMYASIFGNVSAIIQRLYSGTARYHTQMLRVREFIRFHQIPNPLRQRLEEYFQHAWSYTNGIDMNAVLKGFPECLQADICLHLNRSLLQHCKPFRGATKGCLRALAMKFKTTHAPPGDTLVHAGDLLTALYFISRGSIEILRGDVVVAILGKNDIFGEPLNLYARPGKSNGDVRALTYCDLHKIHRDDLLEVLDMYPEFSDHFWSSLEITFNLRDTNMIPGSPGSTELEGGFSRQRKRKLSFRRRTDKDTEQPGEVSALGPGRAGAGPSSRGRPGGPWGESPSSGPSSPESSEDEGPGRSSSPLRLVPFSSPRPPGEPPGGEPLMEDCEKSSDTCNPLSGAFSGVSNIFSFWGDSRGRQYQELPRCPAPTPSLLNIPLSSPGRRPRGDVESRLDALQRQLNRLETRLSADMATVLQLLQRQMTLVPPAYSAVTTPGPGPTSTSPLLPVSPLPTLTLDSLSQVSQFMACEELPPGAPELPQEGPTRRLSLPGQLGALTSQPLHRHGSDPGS

Structure (SMILES) | hERG current change (%, negative = inhibition) at 10uM
COc1ccccc1N1CCN(S(=O)(=O)c2c(C)[nH]c(C)c2C(=O)N2CCCC2)CC1 | 12.4%
CN1CCN(/N=C/c2ccc(Cl)c(Cl)c2)CC1 | -36.4%
CCn1c(CNC(=O)c2ccccc2F)nnc1SCC(=O)NC1CCCCC1 | 13.6%
CCOC(=O)CSc1nc2ccccc2c(=O)n1CCC(=O)NCCc1ccc(OC)c(OC)c1 | -23.2%
COc1ccc(OC)c(CNC(=O)C2CCN(S(=O)(=O)N3CCCCC3)CC2)c1 | -8.39%
Cc1cc(=O)[nH]c(N/N=C/C2=C(N3CCOCC3)C(=C\c3ccc(Cl)cc3)/CC2)n1 | -2.89%
O=C(NCC1CCCO1)c1ccc2c(=O)n(CC3CCCO3)c(=S)[nH]c2c1 (stereo not drawn) | 6.52%
COc1ccc(OC)c(-n2c(-c3cc(-c4ccccc4)n[nH]3)n[nH]c2=S)c1 | 14.9%
COc1ccc(S(=O)(=O)NCCS(=O)(=O)N2CCN(c3ccccc3)CC2)cc1 | -10%
O=C(N/N=C/c1ccc2nccnc2c1)c1cccc([N+](=O)[O-])c1 | -9.36%
CCCn1c(=O)c2c(nc3n2CCCN3CCc2ccc(OC)c(OC)c2)n(C)c1=O | -23.7%
O=C(N/N=C1\CCCc2ccccc21)c1cccc([N+](=O)[O-])c1 | -11%
Cc1cc(N2C(=O)C=CC2=O)c([N+](=O)[O-])cc1C | -3.55%
NC(=O)CC(NC(=O)Cc1ccc(Cl)cc1)c1ccc(NC2CCN(Cc3ccccc3)CC2)c([N+](=O)[O-])c1 (stereo not drawn) | -18.5%
O=C(CC1C(=O)NCCN1C(=O)Nc1ccccc1)Nc1cc(Cl)ccc1Cl (stereo not drawn) | 2.57%
O=C(NCCc1ccccc1C(F)(F)F)C1CCC(=O)N(CCCN2CCCC2=O)C1 (stereo not drawn) | 17.9%
O=C(CCNC(=O)c1ccc(Br)o1)NCc1ccc(Cl)cc1 | -22.4%
COc1cc(OC)cc(C(=O)N2CCC(n3c(C)nc4cc(F)ccc43)CC2)c1 | -59%
NC1=NC(=O)S/C1=C\c1ccc(F)cc1 | 4.55%
CSc1nnc(-c2ccc(S(=O)(=O)N3CCCCC3)cc2)o1 | -2.26%
Cc1cccc(C)c1NC(=O)C1C2C=CC(C2)C1C(=O)NCc1ccccn1 (stereo not drawn) | -0.849%
Cn1c(Cn2c(=O)sc3ccccc32)nnc1SCC(=O)Nc1ccc(F)cc1 | 7.02%

Structure (SMILES) | hERG current change (%, negative = inhibition) at 10uM
Fc1cccc(COc2ccccc2CNc2ccccc2)c1 | 0.968%
COc1ccc(CCNC(=O)CSc2nc3ccccc3c3nc(CCN4CCCCC4)nn23)cc1OC | -14.3%
COc1ccc(CN(CC2CCCO2)C(=O)CN2C(=O)C(C)Oc3ccc(C)cc32)cc1OC (stereo not drawn) | -26.7%
CCOC(=O)N1CCN(CC(=O)c2ccc(O)c(C)c2O)CC1 | 20.9%
CN(C)c1ccc(/C=c2\sc3n(c2=O)CCCN=3)cc1 | 1.12%
CN1C(=O)C(C)(C)c2cc(S(=O)(=O)N3CCN(c4cccc(Cl)c4)CC3)ccc21 | -15.5%
C[C@@H](C(=O)NCc1ccccc1)N1C(=O)C2CC=CCC2C1=O (stereo partly drawn) | 0.932%
CC(=O)N(Cc1ccc(F)cc1)Cc1nc2ccccc2c(=O)[nH]1 | -21%
CCOC(=O)c1cccnc1SCC(=O)NC(C)CC (stereo not drawn) | 10.4%
Cc1ccc(-c2nnn(CC(=O)N(Cc3ccco3)C(C(=O)NC(C)(C)C)c3ccncc3)n2)o1 (stereo not drawn) | 8.07%
Cc1ccccc1C(=O)Nc1ccc(CN2CCOCC2)cc1 | 7.71%
O=S1(=O)CCO[C@H]2Cc3ccccc3[C@H]2N1Cc1ccc(F)cc1 | -20.4%
CC(=O)c1c(C)[nH]c(C(=O)O)c1C | 5.08%
COCC1CCN(C(=O)CCc2nnc(C3(c4ccc(Cl)cc4)CCC3)o2)CC1 | -14.9%
CCOC(=O)N1CCN(S(=O)(=O)c2ccc3c(c2)C(C)C(=O)N3)CC1 (stereo not drawn) | 2.26%
CCCCNC(=S)Nc1cccc2cnccc12 | -4.25%
Cc1cc2nc3c(c(C(F)(F)F)n2n1)CCCC3 | 15.9%
CCN(CC)CCN(C(=O)/C=C/c1cccs1)c1nc2ccc(C)cc2s1.Cl | -10.8%
COCc1cc(C)c(C#N)c(=S)[nH]1 | 1.94%
CC1Cc2ccccc2N1C(=O)Cn1cc([N+](=O)[O-])cn1 (stereo not drawn) | -24.2%
CC1(C)CC(=O)C(C(=O)/C=C/c2ccco2)C(=O)C1 | 13.8%
COc1ccc(NC(=O)Cn2nnc(C(=O)NCc3cccs3)c2N)cc1OC | 11.1%

Structure (SMILES) | hERG current change (%, negative = inhibition) at 10uM
O=C1c2ccccc2C(O)(c2ccccc2)N1c1ccncc1 (stereo not drawn) | 8.82%
COc1cc(C(C)=O)ccc1Oc1ccc(S(=O)(=O)N2CCOCC2)cn1 | -1.9%
[O-]/C(=C(\C(=S)NCc1ccco1)[n+]1ccccc1)c1ccccc1Br | -0.616%
CCN(CCCCCN(C)C)Cc1cc2ccccc2o1.Cl | 9.99%
COC(=O)c1ccc(NC(=S)NC2CCc3ccccc32)cc1 (stereo not drawn) | -13.9%
CNC(=O)N(O)C1N(/N=C/c2c(F)cccc2Cl)C(=S)SC1(C)C (stereo not drawn) | 18%
Cc1ccc(C(=O)N/C(=C\c2ccc([N+](=O)[O-])cc2)C(=O)NCCc2ccccc2)cc1 | -33.8%
CC(=O)N1C(=O)NC2=C(C(=O)CCC2)C1c1cccc([N+](=O)[O-])c1 (stereo not drawn) | 24.2%
O=C(CSc1ccc(Br)cc1)Nc1ccccc1Oc1ccccc1 | 3.02%
CC(C)NC(=O)N1CCCN(c2nc3ccc(Cl)cc3s2)CC1 | -42.1%
O=C(Nc1cccc(F)c1)Nc1ccc2c(c1)CCC2 | 24.6%
O=C(O)C1C2C=CC(C2)C1C(=O)NC1CCN(Cc2ccccc2)CC1 (stereo not drawn) | -1.32%
O=[N+]([O-])c1cccc(-c2cnc3ccccc3n2)c1 | -0.217%
CC(C(=O)Nc1cccc(S(=O)(=O)N2CCOCC2)c1)N1CCN(C)CC1 (stereo not drawn) | -5.23%
O=C(NCc1ccc2c(c1)OCO2)C(=O)NCC1OCCN1S(=O)(=O)c1ccc(Cl)cc1 (stereo not drawn) | -28.9%
COc1ccc(NC(=O)C2Cc3cc(S(=O)(=O)N4CCCCC4)ccc3N2C(C)=O)cc1Cl (stereo not drawn) | 5.58%
CC(C)NS(=O)(=O)c1ccc(NC(=O)Cc2cccs2)cc1 | 15.9%
CC1CN(C(=O)c2ccc(OC3CCN(Cc4ccccn4)CC3)cc2)CCN1C (stereo not drawn) | -2.06%
COc1ccc(C(=O)N/C(=C\c2ccc3c(c2)OCO3)C(=O)NCCc2nc3ccccc3[nH]2)cc1 | -39.4%
CCC(C)NCCOc1cc(C)cc(C)c1C.O=C(O)C(=O)O (stereo not drawn) | 6.06%
COCC(C)n1c(SCC(=O)NC(=O)Cc2ccccc2)nc2ccccc2c1=O (stereo not drawn) | 2.4%
O=C1N=c2ccccc2=C1c1c(O)n(-c2cccc(F)c2)[nH]c1=O | 2.11%

Structure (SMILES) | hERG current change (%, negative = inhibition) at 10uM
CCc1nnc(NC(=O)CSc2nc(C3CCCCC3)nc3ccccc23)s1 | -11.3%
O=C(COC(=O)c1ccc(F)cc1)Nc1cc(S(=O)(=O)N2CCOCC2)ccc1N1CCCC1 | -28.2%
CCOc1cc(C(c2c(O)nc(SC)[nH]c2=O)c2c(O)nc(SC)[nH]c2=O)ccc1O | 19.4%
C=CCNC(=O)c1sc(SC)cc1-c1ccc(Cl)cc1 | -20.4%
Cc1ccc(CC2SC(N)=NC2=O)cc1 (stereo not drawn) | 19.5%
COC(=O)c1cc(S(=O)(=O)N(C)Cc2ccco2)c[nH]1 | -0.617%
Fc1ccccc1CNCCc1c[nH]c2ccccc12.O=C(O)C(=O)O | -8.28%
COc1cc(N2C(=O)C=CC2=O)c(OC)cc1Cl | 11.9%
Cc1cccc(C)c1NC(=O)CSc1nc(C2CC2)nc2ccccc12 | -1.55%
COc1ccccc1OCC(=O)NCCc1nc2ccccc2[nH]1 | 2.13%
Cn1c(C(=O)Nc2ccccc2)cc2sccc21 | -12.8%
CCn1c(/C=C/c2ccccc2[N+](=O)[O-])nc2ccccc2c1=O | 9.59%
COc1cccc(=O)c2c(C)n(-c3cc(C)cc(C)c3)c(C)c12 | -10.4%
C=CCSc1nc(NC)c2sccc2n1 | -30%
CCCOC(=O)c1ccc(Oc2c(-c3ccc(O)cc3O)n[nH]c2C)cc1 | -2.68%
COc1cc(OC)c(NC(=O)c2c(-c3ccccc3)noc2C)cc1Cl | -4.34%
Cc1ccc(S(=O)(=O)N2CCCC(C(=O)NC3CC3)C2)cc1 (stereo not drawn) | 12.4%
Cc1csc2c(=O)sc(NC(=O)c3ccc(F)cc3)nc12 | 5.93%
O=S(=O)(c1ccc2ccccc2c1)N1CCC(c2nc(-c3ccncc3)no2)CC1 | -18.4%
CCCCc1cc(=O)oc2cc(OCc3nn[nH]n3)c(Cl)cc12 | 9.64%
COc1ccccc1C1CCCN1Cc1nc(-c2cc3c(cc2Cl)OCO3)oc1C (stereo not drawn) | -45%
